Results from article PMC9783754 (International Journal of Molecular Sciences, 2022).

Experiments:
[1] = target: the molecule itself; assay: cross-linking; 4 µM sTNF and/or S100 protein (sTNF to S100 1:0, 0:1, 1:0.5, 1:1, 1:2), 20 mM EDAC and 5 mM sulfo-NHS, 25 °C, 1.5 h; 10 mM HEPES, 150 mM NaCl, pH 7.4 with 1 mM CaCl2; SDS-PAGE with silver staining
Recombinant human S100A6 = Recombinant human S100A6 (human, UniProt P06703); assay: SPR; ligand (50 μg/mL sTNF or TNF-β) immobilised on a ProteOn GLH chip by amine coupling; chip flushed with running buffer for two days and several times with 10 mM glycine pH 3.3 to dissociate sTNF multimers (monomeric sTNF); Ca2+-loaded S100 protein as analyte, 10 nM–2 µM; 25 °C; 10 mM HEPES, 150 mM NaCl, 1 mM CaCl2, 0.05% TWEEN 20, pH 7.4; heterogeneous ligand model; settings: both partners purified

B1: Recombinant human sTNF (soluble form of tumor necrosis factor) (ligand)
chain: not shown
notes: additional N-terminal methionine, stated in words; tumor necrosis factor, human, soluble form (157 residues), […] of UniProt entry […]; Monomeric on the SPR chip after long flushing and glycine pH 3.3 washes; multimeric in solution in the fluorimetric titrations and cross-linking; also called TNF-α; TNF ligand superfamily member 2; source: bought: Prospec-Tany Technogene (catalog # CYT-223), …
[1]
  binding result: binds
Recombinant human S100A6
  Kd: > 100 µM
